In the RNAGym collection of RNA variant scans (doi:10.1073/pnas.2313332121):
Variants at the background level are over-represented here.

B1: TPR 5TU (parent)
chain: GGAUCUUCUCGAUCUAACAAAAAAGACAAAUCUGCCACAAAGCUUGAGAGCAUCUUCGGAUGCAGAGGCGGCAGCCUUCGGUGGCGCGAUAGCGCCAACGUUCUCAACUAUGACACGCAAAACGCGUGCUCCGUUGAAUGGAGUUUAUCAUG

Variants of: B1
Experiment: polymerase ribozyme fitness, log enrichment relative to wild type (log ratio); higher = more active; in vitro selection for triplet polymerase activity
Summary of the method: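 Only genotypes with ≥10 input reads and ≥1 read per output were kept after Illumina sequencing of input and output libraries. These libraries were PCR-built, transcribed mutants of each subunit of a heterodimeric triplet polymerase ribozyme, each put through one triplicate in vitro selection round with frozen incubation at −7 °C, gel excision of extended constructs, streptavidin-bead capture and RT-PCR. Fitness is a logarithmic ratio of genotype enrichment to wild-type enrichment, from inverse-variance-weighted replicate averages, with the logarithm in base 2.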

Variant | polymerase ribozyme fitness (log ratio)
GGAUCUUCUCGAUCUAACAAAAAAGACAAAUCUUCCACAAUGCUUGAGAGCAUCUUCGGAUGCAGAGCCGGCAGCCUUCGGUCGCGGGAUAGCGCCUACGUUCUCAACUAUGACACGCAAAUCCCGUGCUCCGUUGAAGGGAGUUUAUCAGG [G34U A41U G68C G83C C87G A97U A122U G124C U139G U151G] | ≤ -4.2
GGAUCUUCUCGAUCUAACAAAAAAGACAAAUCUGACACAAAGCUUGAGCGCAUCUCCGGAUGCAGAGGCGAUAGCCUUCGGUGGCGCGAUAACGCCAACGUUCUCAACUAUGACCCGCAAAACGCGUGCUCCGUUGAAUGGAGUUUAUCAUG [C35A A49C U56C G71A C72U G92A A115C] | -3.21
GGAUCUUCUCGAUCUAACAAAAAAGACAAAUCUUCCACAAAGCUUGAGAGCAUCUUCGGAUGCAGAGGCGGCAGCCUUCCGUGGCGCGAUAGCGCCAACGUUCUCACCUAUGACACGCAAAACGCGUGCUCCGUUGAGUGGAGUUUAUCAUG [G34U G80C A107C A138G] | ≤ -4.2
GGAUCUUCUCGAUCUAACAAAAAAGACAAAUCUUAUACAAAGCUUGAGACCAUCUUCGGAUGCAGAUGCGGCAGCCUUCGGCGGCGCGAUAGCGCCUACGGUCUCAACUAUGACACGCAAAACGCGUGCUCCGUUGAAUGGAGUUUAUCAUG [G34U C35A C36U G50C G67U U82C A97U U101G] | ≤ -4.2
GGAUCUUCUCGAUCUAACAAAAAAGACAAAUCUUCCACAAGGCUUGAGAGCAUCUUCGGAUGCAGAGGCGGCAGCCUUCGAUGUCGAGAUAGAGCCAACGUUCUCAACUGUGACACGCAAAACGCGUGCUCCGUUGAAUGGAGUUUAUCAUG [G34U A41G G81A G84U C87A C93A A110G] | ≤ -4.2
GGAUCUUCUCGAUCUAACAAAAAAGACAAAUCUUCCACAAAACUUGAGAGCAUCUACGGAUGCAGAGGCGGCAGCCUUCGGUGGCACGAUAGCGCCAACGUUCUCAACUAUGACACGCAAAACGCGUGCUCCGUUGAAUGGAGUUUAUCAUG [G34U G42A U56A G86A] | ≤ -4.2
GGAUCUUCUCGAUCUAACAAAAAAGACAAAUCUGAUACAAAGCUUGAGAGCAUCUUCGGAUGCAGAGGCGGCAGCCUUCGGUGGCGCGAUAGCCCUAACGUUCUCAACUAUGACACGCAAAACGCGUGCUCCGUUGAAUGGAGUUUAUCAUG [C35A C36U G94C C96U] | ≤ -4.2
GGAUCUUCUCGAUCUAACAAAAAAGACAAAUCUGACACAAAGCUUGCCAGCAUCUACGGAUGCAGAGGCGGCAGCCUUCGGUGGCGCGAUAGCCCAAACAUUCUCAACUAUGACACGCAAAACGCGUGCUCCGUUGAAUGGAGUUUAUCAUG [C35A A47C G48C U56A G94C C96A G100A] | ≤ -4.2
GGAUCUUCUCGAUCUAACAAAAAAGACAAAUCUUCCACAAAGCUUGAGAGCAUCUACGGAUGCCGAGGCCGCAGCCUUCGGUGGCGCGAUAGCGCCUACAUUCUCAACUAUGACACGCAAAACGCGUGCUCCGUUGAAUGGAGUUUAUCAUG [G34U U56A A64C G70C A97U G100A] | ≤ -4.2
GGAUCUUCUCGAUCUAACAAAAAAGACAAAUCUUCCACAAAGCUUGAGAGCAUCUUCGGUUGCAGAGGCGGCAGCCUUCGGUGGCGCGAUGGCUCCAACGUUCUCAACUAUGACACGCAAAACGCGUGCUCCGUUGAAUGGCGUUUAUCAUG [G34U A60U A91G G94U A142C] | ≤ -4.2
GGAUCUUCUCGAUCUAACAAAAAAGACAAAUCUGACACUAAGCUUGAGAGCAUCUUCGGAUGCAGAGGCGGCAGCCUUCGGUGGCGCGAUAGCGCCGACGUUCUCAACUAUGACACGCAAAACGCGUGCUCCGUUGAAUGGAGUUUAUCAUG [C35A A39U A97G] | ≤ -4.2
GGAUCUUCUCGAUCUAACAAAAAAGACAAAUCUUCCACAAAGCUUGAGAGCAUUUUCGGAUGCAGAGGCGCCAGCCUUCGGUGGAGCGAUAGCGCCAACGUUCUCAACUAUGACACGCAAAACGCGUGCUCCGUUGAAUGGAGUUUAUCAUG [G34U C54U G71C C85A] | ≤ -4.2
GGAUCUUCUCGAUCUAACAAAAAAGACAAAUCUGACACAAAGCUUGAGAGCAUCUUCGGAUGCAGAGGGGGCAGCCUUCGGUGGCGCCAUAGAGCUAACGUUCUCAACGAUGACACGCCAAACGCGUGCUCCGUUGAAUGGAGUUUAUCAUG [C35A C69G G88C C93A C96U U109G A119C] | ≤ -4.2
GGAUCUUCUCGAUCUAACAAAAAAGACAAAUCUGACACAAAGCUUGAGAGCAUCUUCGGAUGCAGAGGCGGCAGCCUUCGGUGGCGCGGUAGCGUCAACGUUCUCAACUAUGACACGCAAAACGCGUGCUCCGUUGAAUGGAGUUUAUCAUG [C35A A89G C95U] | ≤ -4.2
GGAUCUUCUCGAUCUAACAAAAAAGACAAAUCUGACACAAAGCUUGAGAGCCUCUUCGGAUGCAGAGGCGGCAGCCCUCGGUGGCGCGAUAGCGCCAACGUUCUCAACUAUGACACGCAAAACGCGUGCUCCGUUGAAUGGAGUUUCUCAUG [C35A A52C U77C A147C] | ≤ -4.2
GGAUCUUCUCGAUCUAACAAAAAAGACAAAUCUGACACCAAGCUUGAGAGCAUCUUCGGAUGCAGAGGCGGCAGCCUUCGGUAGCGCGAUAGCGCCAACGUUCUCAACUAUGAAACACAAAAGGCGUGCUCCGUUGAAUUGAGUUUAUCAUG [C35A A39C G83A C114A G117A C123G G140U] | ≤ -4.2
GGAUCUUCUCGAUCUAACAAAAAAGACAAAUCUUCCACAAAGCUUGAGAGCAUCUACGGAUGCAGAGGCGGCAGCCUUCGGUGGCGCGAUAGCGCCAACGUUCUCAACUAUGACACGCAAAACGCGUGCUCCGUUGAAUGGAGUUUAUCAUG [G34U U56A] | -1.7
GGAUCUUCUCGAUCUAACAAAAAAGACAAAUCUGACACAAUGCUUGAGAGCAUCUUCGGAUGCAGAGGCGGCAGCCUUGGGUGGCGCGAGAGCGCCAACGUUCUCAACUAUGACACGCAAAACGCGUGCUCCGUUGAAUGGAGUUUAUCAUG [C35A A41U C79G U90G] | ≤ -4.2
GGAUCUUCUCGAUCUAACAAAAAAGACAAAUCUGACACAAAGCUUGAGAGCCCCUUCGGAUGCAGAGGCGGCAGCCUUCGGUGGCGCGAUAGCGCCAACGUUCUCAACUAUGACACGCAAAACGCGUGCUCCGUUGAAUGGAGUUUAUCAUG [C35A A52C U53C] | ≤ -4.2
